Results as given in PubChem BioAssay AID504375 (National Center for Advancing Translational Sciences (NCATS), 2011).
Where “and” joins values, the source holds several entries; their conditions need not be identical. Equal entries are not always repeated. The campaign covered roughly 1,600 compounds. About 25 (2%) were called active. Inconclusive results, whose numbers are uncertain, are shown with a selection of clear calls. Calls come from the whole dose curve; as a rule, active = well fitted inhibition curve with a large enough effect; inconclusive = small, poorly fitted or top-dose-only effect, or effect the other way; inactive = no such curve, though single readings can be large or run the other way. Potencies beside an inconclusive call are fits to weak or partial responses and may not hold up.
% is set by controls: 0 for no effect and ±100 for the full control effect; potency is the fitted concentration of half-maximal effect; tags give direction and shape of the fitted curve.

These molecules were tested against Runt-related transcription factor 1 (Homo sapiens) + Core-binding factor subunit beta (Homo sapiens) (UniProt Q01196+Q13951) (assay: qHTS Assay for Compounds Blocking the Interaction Between CBF-beta and RUNX1 for the Treatment of Acute Myeloid Leukemia: Hit Validation with Orthogonal Assay). Conditions: CBFbeta-RUNX1 binding orthogonal assay, biochemical; series mostly up to 41 µM; activity change, negative = inhibition: at the top concentration.
Chain of UniProt Q01196 (Q01196 whole entry, looked up): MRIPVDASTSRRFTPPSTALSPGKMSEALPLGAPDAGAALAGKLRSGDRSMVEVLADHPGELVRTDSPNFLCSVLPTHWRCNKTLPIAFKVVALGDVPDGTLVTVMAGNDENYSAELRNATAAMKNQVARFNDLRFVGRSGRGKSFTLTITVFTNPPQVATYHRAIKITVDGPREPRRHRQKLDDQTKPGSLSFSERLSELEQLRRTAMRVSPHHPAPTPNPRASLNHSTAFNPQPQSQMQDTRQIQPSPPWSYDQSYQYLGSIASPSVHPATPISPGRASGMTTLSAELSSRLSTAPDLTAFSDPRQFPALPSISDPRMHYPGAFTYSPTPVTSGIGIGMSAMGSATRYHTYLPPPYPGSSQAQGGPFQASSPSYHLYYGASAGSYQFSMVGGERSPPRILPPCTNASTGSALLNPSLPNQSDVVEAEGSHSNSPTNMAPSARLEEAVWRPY
Chain of UniProt Q01196 (Q13951 whole entry, looked up): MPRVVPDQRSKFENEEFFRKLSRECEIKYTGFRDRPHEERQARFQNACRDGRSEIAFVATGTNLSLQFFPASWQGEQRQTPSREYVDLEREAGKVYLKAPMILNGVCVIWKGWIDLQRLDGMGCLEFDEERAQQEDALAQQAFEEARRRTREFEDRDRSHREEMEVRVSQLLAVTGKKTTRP
Description: NIH Chemical Genomics Center [NCGC]
NIH Molecular Libraries Probe Production centers Network [MLPCN]
Assay Submitter (PI): Paul Liu
Core Binding Factor (CBF) abnormalities are associated with 20-25% of all acute myeloid leukemias (AML), of which 5-10% are further sub classified as acute myelomonocytic leukemia with eosinophilia, also known as M4Eo in the FAB classification scheme. This subtype of leukemia is usually associated with chromosome 16 inversion (p13:q22). Chromosome 16 inversion results in formation of the fusion oncogene CBFB-MYH11, which encodes the fusion protein CBF-beta-SMMHC.
It has been hypothesized that the interference of CBF-beta and RUNX1 binding could have therapeutic implications for patients with CBF mediated leukemias. We developed a CBF-beta and RUNX1 binding assay in AlphaScreenTM format and optimized it for high throughput screening to search for inhibitors. The goal of this project is to screen MLPCN's compound collection (MLSMR) for identifying the inhibitors of the interaction between CBF-beta and RUNX1 proteins as research probes. If these probes work well in the animal models, the ultimate goal of this project is to development a new drug treatment for this disease.
This assay can not be used to assess how apparent inhibitors interfere with protein binding, and whether inhibitors specifically bind to either protein. Disruption of this protein-protein interaction, through any mechanism, is the intended target activity.
The present data set was run to confirm the activity of hits from the primary screen using an orthogonal assay technology for measuring protein-protein interaction disruption.
A TR-FRET (time resolved fluorescence resonance energy transfer) assay was performed using the same assay buffer, protein concentrations and incubation times as described previously in the AlphaScreen assay, except that terbium (Tb+) labeled anti-his-antibody and XL665 linked streptavidin were used to capture the binding signal. The Tb+ labeled anti-his-antibody captures His(6)-CBF and XL665 linked streptavidin binds to biotin-RUNX1. The binding of RUNX1 to CBFbrings Tb+ and XL665 to proximity resulting in a TR-FRET signal. Briefly, in a white 384-well plate, 10 µl/well of mixture of biotin-RUNX1 and His(6)-CBFwere incubated with 10 µl/well buffer (positive control) or 10 µl/well compounds (negative control) for 20 min followed by an addition of 10 µl/well of Tb+ labeled anti-his(6)-antibody and XL665 linked streptavidin. After 90 min of incubation in the dark, the assay plate was measured in the Envision plate reader using TR-FRET detection mode. For the 1536-well plate format, 3 µl/well mixture of biotin-RUNX1 and His(6)-CBF (30 nM per protein) was incubated with 23 nl/well compound (dissolved in 100% DMSO) or the equivalent DMSO concentration (positive control) for 30 min followed by the addition of 1 µl/well of 0.44 ng Tb+ labeled anti-his(6)-antibody and 5 nM streptavodin-XL665. After 90 min of incubation, the assay plate was measured in the Envision plate reader.
The TR-FRET assay for detecting interaction between HIV-I Tat and […] was similarly performed with the recombinant full-length HIV-I Tat CLADE B and HIV-I Tat Biotin conjugated proteins supplied by Diatheva (Fano, Italy). Briefly, the His-CBF and Biotin-RUNX1 complex at a working concentration of 83.3 nM per protein were pre-incubated in assay buffer for 10 minutes on ice. Then HIV-I Tat or unlabeled CBF were added to reach final concentrations (Supplementary Figure 4b) and incubated for 5 minutes. Finally anti-His antibody and streptavidin-XL665 at a final concentration of 2.2 ng and 5 nM, respectively, were added to the plate, which was incubated for 1 hr prior to reading on the PerkinElmer Envision plate reader.
Keywords: MLSMR, MLPCN, NIH Roadmap, qHTS, NCGC, Core binding factor, CBF, CBF-beta, Acute myeloid leukemia
In the case of `NCCc1cc(O)c(O)cc1O`, the Potency is reported as inconclusive: 562 nM [inhibitor, full curve, poor fit] and inconclusive: 631 nM [inhibitor, full curve].
With `COc1ccc(CN2C(=O)NC(=O)/C(=C/c3ccc(OC)c(OC)c3OC)C2=O)cc1` the Potency was inconclusive: 10 µM [inhibitor, single point].
With `CN(N=O)c1ccc(O)c(O)c1` the Potency was active: 2.51 µM.
`O=C1C=CC(=O)c2c(O)cccc21` was tested, and the Potency was inconclusive: 25.1 µM [inhibitor, full curve, poor fit].
`CN1Cc2ccccc2[C@@H]2c3cccc4[nH]cc(c34)C[C@H]21` was tested, and the Potency was inconclusive: 31.6 µM [activator, partial curve, poor fit].
With `CCCCNC(=O)Oc1c(Br)cc2sc(=O)oc2c1Br` the Potency was inconclusive: 0.0194 µM [inhibitor, full curve, poor fit].
For `CN(N=O)c1cc(O)ccc1O`, the “activity change, negative = inhibition” value was inactive: 20.1% [at 82.4 µM].
For `NC(Cc1cc(O)c(O)cc1O)C(=O)O` (configuration not stated), the Potency was active: 10 µM.
In the case of `Cc1cccc(-n2c(O)c(/C=N/Nc3nc4c(c(=O)n(C)c(=O)n4C)n3C)c(=O)[nH]c2=S)c1`, the Potency is reported as inconclusive: 35.5 µM [activator, partial curve, poor fit].
For `O=C(O)CN1C(=O)CN=C(c2ccccn2)c2cc(Cl)ccc21`, the “activity change, negative = inhibition” value was inactive: 6.91%.
`C/C=C/CC1(CC)C(=O)NC(=S)NC1=O` was tested, and the Potency was inconclusive: 25.1 µM [inhibitor, single point].
For `O=C(OCC1O[C@@H](OC(=O)c2cc(O)c(O)c(O)c2)[C@@H](OC(=O)c2cc(O)c(O)c(O)c2)[C@@H](OC(=O)c2cc(O)c(O)c(O)c2)[C@@H]1OC(=O)c1cc(O)c(O)c(O)c1)c1cc(O)c(O)c(O)c1` (some centres not stated), the Potency was inconclusive: 0.141 µM [inhibitor, full curve].
`Cn1c(O)c(/C=N/N2CCOCC2)c(=O)[nH]c1=S` was tested, and the “activity change, negative = inhibition” value was inactive: -13.8%.
With `CC[n+]1c(-c2ccccc2)c2cc(N)ccc2c2ccc(N)cc21` the Potency was inconclusive: 22.3 µM [activator, partial curve].
For `Cc1cccc(OCCn2cccc2/C=C2/C(=O)NC(=O)N(Cc3ccco3)C2=O)c1`, the Potency was inconclusive: 15.8 µM [inhibitor, partial curve, poor fit].
`Clc1ccccc1CN1CCN(c2cccc3[nH]ccc23)CC1` was tested, and the Potency was inconclusive: 35.5 µM [inhibitor, partial curve, poor fit].
`CC[N+](C)(CC)CCC[n+]1c(-c2ccccc2)c2cc(N)ccc2c2ccc(N)cc21` was tested, and the Potency was inconclusive: 0.888 µM [inhibitor, full curve, poor fit].
`CC(C)C[C@H]1C(=O)N2CCCC2[C@]2(O)O[C@](NC(=O)[C@@H]3C=C4c5cccc6[nH]cc(c56)CC4N(C)C3)(C(C)C)C(=O)N12` (some centres not stated) was tested, and the Potency was inconclusive: 65.1 nM [activator, full curve] and inconclusive: 6.51 µM [activator, partial curve].
For `CC(C)[C@H]1C(=O)N2CCC[C@H]2[C@]2(O)O[C@](NC(=O)[C@@H]3C=C4c5cccc6[nH]cc(c56)C[C@H]4N(C)C3)(C(C)C)C(=O)N12`, the Potency was inconclusive: 7.94 µM [activator, full curve].
In the case of `CC(C)C(N)C(=O)OCCOCn1cnc2c(=O)[nH]c(N)nc21` (configuration not stated), the Potency is reported as inconclusive: 1.41 µM [inhibitor, full curve].
`O=C(O)CCCCC1SCC2NC(=O)NC21` (configuration not stated) was tested, and the Potency was active: 0.02 µM.
With `CCn1nc(-c2ccccc2)nc2c(=O)n(C)c(=O)nc1-2` the Potency was inconclusive: 11.2 µM [inhibitor, full curve, poor fit].
